Data: PubChem BioAssay AID1240 (Sanford-Burnham Center for Chemical Genomics, 2008)
In all, about 50,000 compounds went through this assay and about 800 (1.6%) showed an effect of 50% or more. Some of the results follow.

molecular target: Bcl-2-like protein 10 (Homo sapiens) (UniProt Q9HD36); test: Phenotype converters, Bcl-B/TR3 peptide binding displacement, primary biochemical FP (AID 1240); details: GST-Bcl-B / FITC-TR3 peptide fluorescence polarization; stronger effect = higher value; compound at 3.75 mg/L;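 further: 0% = Bcl-B with tracer peptide and DMSO and 100% = tracer peptide lacking Bcl-B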
Chain of UniProt Q9HD36 (Q9HD36 whole entry, looked up): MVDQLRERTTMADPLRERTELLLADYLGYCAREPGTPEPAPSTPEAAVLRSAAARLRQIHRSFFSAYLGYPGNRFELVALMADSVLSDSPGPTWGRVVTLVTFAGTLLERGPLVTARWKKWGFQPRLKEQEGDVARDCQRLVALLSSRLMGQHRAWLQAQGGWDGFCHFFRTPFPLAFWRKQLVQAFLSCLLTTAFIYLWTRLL

SMILES | displacement
CC1CN(C(=O)CCN2C(=O)c3ccccc3C2=O)CC(C)O1 (stereo unspecified) | 13.3%
O=C1c2ccc3c4c(ccc(c24)C(=O)N1/N=C/c1ccco1)CC3 | 0.2%
CCOC(=O)c1c(-c2ccc(-c3ccccc3)cc2)csc1N | 11%
COc1cccc(/C=N/Nc2nc(-c3ccccc3)nc(C)c2C)c1O | -8.4%
Cc1cc(C)nc(SCC(=O)Nc2ccccc2[N+](=O)[O-])n1 | -2.3%
CCOC(=O)C(=CNc1ccc(C(N)=O)cc1)C(=O)OCC | -4.6%
COc1cccc(N=Cc2c(O)n(-c3ccccc3C)c(=O)[nH]c2=O)c1 | 2.1%
CCCN1CCC(=NNC(=O)c2cccc3ccccc23)CC1 | -5.7%
CCOc1ccc(N/C=C\C(=O)c2ccc3c(c2)OCO3)cc1 | 10.4%
Cc1ccc(OCC(=O)Nc2cc(C(F)(F)F)cc(C(F)(F)F)c2)cc1C | 6.8%
Cc1nc(N)sc1C(=O)N/N=C/c1ccc(O)cc1 | -0.9%
O=C(CCC(NC(=O)OCc1ccccc1)C(=O)OCc1ccccc1)NCC(=O)OCc1ccccc1 (stereo unspecified) | 1.9%
CCOc1ccc(C(=O)Nc2ccc(Oc3ccccc3)cc2)cc1 | -0.4%
COc1ccc(/C=C/C(=O)c2ccc3c(c2)OCCO3)cc1[N+](=O)[O-] | 3.4%
CCC1CCc2c(sc(NC(=O)c3ccc([N+](=O)[O-])cc3Cl)c2C(=O)OC)C1 (stereo unspecified) | 7.8%
CCOc1ccc(N(CC(=O)Nc2c(C)cccc2C)S(C)(=O)=O)cc1 | 0.1%
NC(=O)c1ccccc1NC(=O)c1cc([N+](=O)[O-])ccc1Cl | -6.5%
O=C1N/C(=N/N=C\c2cccc([N+](=O)[O-])c2)SC1Cc1ccc(Br)cc1 (stereo unspecified) | -8%
Cc1ccc(/C=C2\SC(=S)N(NS(=O)(=O)c3ccc(C)cc3)C2=O)cc1 | 9.3%
Cc1[nH]c2ccc(C(=O)O)cc2c(=O)c1CC=C(Cl)Cl | -8.7%
CCOc1ccc2oc(-c3ccccc3)c(C(=O)O)c2c1 | 5.4%
Cc1cc(-n2c(C)cc(C=O)c2C)cc(C)c1Br | 0%
O=[N+]([O-])c1ccc(Oc2ccc(S(=O)(=O)Nc3ccc(Cl)cc3)cc2)cc1 | 1.4%

SMILES | displacement
Nc1ccc2oc(-c3cccc(Cl)c3)nc2c1 | 15.5%
CC(=O)c1cccc(NC(=O)c2ccc(Br)c(S(=O)(=O)N3CCCCC3)c2)c1 | -2.2%
Cc1c(Cl)c(C(F)(F)F)nn1CC(=O)NCc1ccc(Cl)cc1 | 13.2%
O=C(/C=C/c1ccccc1Cl)Nc1cc(Cl)c(Cl)cc1Cl | 2.1%
COc1ccc(OC)c(C(c2c(C)[nH]n(-c3ccccc3)c2=O)c2c(C)[nH]n(-c3ccccc3)c2=O)c1 | 4.4%
Cc1ccc(NC(=O)CCC2CCCCC2)cc1Cl | -9.1%
COc1ccc(OC)c(-n2cnnn2)c1 | 0.3%
Cc1cccnc1NC(=O)CCc1ccccc1 | 4.5%
CN(c1ccccc1)c1ccc(/C=C2\C(=O)ON=C2c2cccc([N+](=O)[O-])c2)cc1 | -9.6%
Cc1cc(/C=c2\sc3nc4ccccc4n3c2=O)c(C)n1C | 0.7%
CC1=C(C(=O)Nc2ccccc2)C(c2ccccc2Cl)NC(=S)N1 (stereo unspecified) | 9.6%
CN1CCN(Cc2c(O)ccc3cc(-c4nc5ccccc5s4)c(=O)oc23)CC1 | 121%
O=C(/C=C/c1ccco1)Nc1ccccc1-c1ccccc1 | -14.5%
CCOC(=O)CCCN1C(=O)/C(=C\c2cccs2)SC1=S | 5.8%
CCCCCCCc1c(C#N)c(N)[nH]c(=S)c1C#N | 0%
CN(c1ccc(C(=O)NCCSCc2ccccc2)cc1)S(=O)(=O)c1ccccc1 | 4.4%
C=CCOC(=O)C1=C(C)NC(=O)NC1c1cccc(Br)c1 (stereo unspecified) | -4.1%
CCOC(=O)c1ccc(N2C(=O)C3C(C2=O)C2(C)c4ccccc4C3(C)c3ccccc32)cc1 (stereo unspecified) | 10.3%
CC(=O)Oc1ccc2c(C)c(C)c(=O)oc2c1 | 6.4%
COc1ccc(Cl)cc1C(=O)N(C(C)C)C(C)C | 13%
Nc1cc(Cl)c(S(=O)(=O)Nc2ccccc2)cc1S(=O)(=O)Nc1ccccc1 | 1%
O=C(CCN1C(=O)/C(=C\c2cccs2)SC1=S)Nc1ccccc1C(=O)O | 19.8%
O=C(COc1ccc2ccccc2c1)Nc1ccccc1F | 8.3%

SMILES | displacement
COc1ccc(S(=O)(=O)N(CCc2ccccc2)CC(=O)Nc2ccc(C)cc2C)cc1 | -15.1%
CCOC(=O)CCN(CP(C)(=O)OC(C)C)C(=O)OCC (stereo unspecified) | 11%
CC1CCc2c(sc(NC(=O)COc3ccc(Cl)cc3Cl)c2C#N)C1 (stereo unspecified) | 6.5%
CCC(C(=O)Nc1cc(Cl)ccc1Cl)c1ccccc1 (stereo unspecified) | 12%
COc1ccc(/C=C/C(=O)c2cccc(Br)c2)cc1 | 2.5%
CCN1CCN(S(=O)(=O)c2cc(Cl)ccc2Cl)CC1 | -10.9%
COc1ccccc1NC(=O)c1cc(-c2ccccc2C)nc2ccccc12 | -8.4%
CCCCOc1cc2oc(=O)cc(C)c2cc1OCCCC | -8.4%
Fc1ccc(NC(=S)N(CCN(C(=S)Nc2ccc(F)cc2)c2ccccc2)c2ccccc2)cc1 | -3.3%
COC(=O)c1ccccc1NC(=O)c1ccc(CN2CCOCC2)cc1 | 2.8%
CCOC(=O)c1ccc(NC(=O)CN(c2ccccc2OC)S(=O)(=O)c2ccccc2)cc1 | 5.1%
CCCCOC(=O)c1cccc(NC(=O)COc2ccc(C)cc2C)c1 | 0%
CC12c3ccccc3C(C)(c3ccccc31)C1C(=O)NC(=O)C12 (stereo unspecified) | 11%
CC(=O)c1ccc(/C=C2\SC(=S)N(C)C2=O)o1 | 16.2%
N#C/C(=C\c1cn(CC(=O)Nc2ccccc2)c2ccccc12)C(=O)Nc1ccccc1 | -36.7%
CCOC(=O)C1=C(O)/C(=C/c2ccco2)SC1=Nc1ccc(C)cc1 | 6%
Cc1cc(=O)oc2cc(OCC(=O)c3ccc(Cl)cc3)c(Cl)cc12 | -10.6%
COc1cc2c(cc1[N+](=O)[O-])CCCC2 | -11.5%
O=C(c1ccccc1F)N1CCN(S(=O)(=O)c2ccccc2)CC1 | -4.9%
CC(C)CCNC(=O)C(=O)Nc1ccccc1F | 5.4%
NC(=S)N/N=C/c1ccc(C2C=CCC2)s1 (stereo unspecified) | -13.8%
O=C(Nc1ccc2oc(-c3cccc(Cl)c3Cl)nc2c1)c1ccc([N+](=O)[O-])cc1 | 0%
O=C1C2=C(C(c3ccccc3)=NCCN2)C(c2ccc(F)cc2)N1c1ccccc1 (stereo unspecified) | -5%

SMILES | displacement
Cc1ccc(N2C(=O)/C(=C/c3cc(C)n(-c4cccnc4)c3C)C(=O)NC2=S)cc1C | 7.6%
CC(Oc1ccccc1)C(=O)Nc1ccc2[nH]c(=O)[nH]c2c1 (stereo unspecified) | -3.6%
CCN(CC)S(=O)(=O)c1ccc(NC(=O)CCc2ccccc2)cc1 | -2.7%
COc1cc(C=C2C(=O)NC(=S)NC2=O)ccc1OCCC(C)C | 11.4%
COc1ccc(C(=O)NCc2ccncc2)cc1[N+](=O)[O-] | -1.8%
O=C(N=Nc1c(O)[nH]c2ccccc12)c1cc(-c2ccc(Br)cc2)nc2ccccc12 | -16.1%
CC(=O)Cc1c(C(=O)O)c(C)nn1-c1ccccc1 | -13.1%
Cc1ccc(C(=O)O/N=C(\N)c2cccnc2)cc1 | -6.8%
COc1cc(/C=C(/C#N)C(=O)Nc2cccc(Br)c2)c([N+](=O)[O-])cc1OC | -8.1%
CC(C)(O)C#Cc1ccc(C(=O)NCCc2ccccc2)cc1 | 1%
O=C(CN(c1cccc(Cl)c1)S(=O)(=O)c1ccccc1)NC12CC3CC(CC(C3)C1)C2 | -10.4%
O=c1nc(/C=C/c2cc([N+](=O)[O-])ccc2Cl)cc(C(F)(F)F)[nH]1 | -7.6%
O=C(O)c1cccc(Nc2nc(-c3ccc(Br)cc3)cs2)c1 | 14.1%
COc1ccc2c(c1)CCC1C2=NN(/C(C)=C/C(C)=O)C1c1ccc(Br)cc1 (stereo unspecified) | 14.8%
O=C1NC(=S)N(c2ccccc2)C(=O)/C1=C\c1ccc(N2CCCC2)cc1 | -3.8%
CCOc1ccc2cc(S(=O)(=O)NCc3cccnc3)ccc2c1 | -4%
O=C1c2ccccc2C(=O)N1CCc1nc2ccccc2c(=O)n1Cc1ccco1 | -6.1%
COC(=O)c1c(C)oc2cc(Br)c(OCC(N)=O)cc12 | 6.1%
Cc1cc(C)nc(SCC(=O)OCC(=O)Nc2ccc(S(N)(=O)=O)cc2)n1 | 10.1%
Fc1c(F)c(F)c2c(c1F)Oc1ccccc1O2 | 11.8%
CC(C)CC(=O)N1CCN(Cc2ccccc2F)CC1 | -16.6%
COc1ccccc1OCC(=O)Nc1ccc(Nc2ccccc2)cc1 | 15%
COc1cccc(/C=N/Nc2ncc(Br)cn2)c1O | -10.9%

SMILES | displacement
Cc1ccc(NC(=O)COc2ccccc2C)c([N+](=O)[O-])c1 | -2.9%
COc1ccc(NC(=O)Cc2ccccc2OC)c(OC)c1 | 7.1%
CN(C)CCOC(=O)CCN1C(=O)/C(=C/c2ccccc2Cl)SC1=S | 17.4%
O=C(CC(c1ccccc1)c1ccccc1)Nc1ccccc1Br | -11.6%
O=C(c1nc2nc(-c3ccccc3)cc(C(F)(F)F)n2n1)N1CCCCC1 | -13.9%
CC(C)=CCCC(C)NC(=O)NC1CCCCC1 (stereo unspecified) | 5.7%
O=C1C(=O)N(Cc2cccnc2)C(c2ccc(F)cc2)/C1=C(\O)c1ccccc1 (stereo unspecified) | -8%
CN1C(=O)C(c2ccc(O)cc2)(c2ccc(O)cc2)c2ccccc21 | -0.7%
CCCCc1nc(N)c(C#N)c(-c2ccco2)c1CCC | 8.4%
O=C1C(=O)N(c2cccnc2)C(c2ccc(Br)cc2)/C1=C(\O)c1ccc(Cl)cc1 (stereo unspecified) | -4.9%
Clc1ccc(C2=CSC3=NCCN23)cc1 | 6.3%
COc1ccc(S(=O)(=O)N2CCc3ccccc32)cc1 | -13.5%
COc1cccc(N2C(=O)C=C(C)C2=O)c1 | 1.4%
Cc1ccc(C(=O)C[n+]2cc(-c3ccccc3)n3c2CCCCC3)cc1 | 2.5%
Fc1ccc(-c2csc(Nc3ccc(Cl)cc3)n2)cc1 | -1.6%
COn1c(=O)c(-c2ccccc2)[n+]([O-])c2ccccc21 | 15.9%
O=C(CSc1ccc2ccccc2n1)N/N=C/c1ccc(Br)cc1 | -4.8%
Cc1c(C(=O)O/N=C(\N)Cc2ccc(Cl)cc2Cl)cccc1[N+](=O)[O-] | 13%
O=C(CC1(C(F)(F)F)NCCO1)c1cccs1 (stereo unspecified) | -8.4%
